The record followed here is the antibiotic and cytotoxicity screens of Wong et al. (2023).

The test system of one assay is HSkMC. In words: cytotoxicity call (relative viability < 0.9). The following applies: 10 µM.
The test system of the next assay is HepG2. Put plainly: cytotoxicity call (relative viability < 0.9). The conditions noted are these: 10 µM.
A further assay deals with S. aureus RN4220. In words: growth inhibition call (relative growth <= 0.2). The conditions noted are these: 50 µM.

Molecules are shown by their SMILES. The list shows a part of the results.

Regarding `C[C@H]1CCCCO[C@H](CN(C)S(=O)(=O)c2cn(C)cn2)[C@@H](C)CN([C@@H](C)CO)C(=O)c2cc(N(C)C)ccc2O1`, the cytotoxicity call with HSkMC and in the assay on HepG2 was “inactive” in each case. Besides, in the assay with S. aureus RN4220, the growth inhibition call was “inactive”.
On to `COc1ccc(CN(C)C[C@@H]2Oc3ccc(NC(=O)Nc4cccc5ccccc45)cc3CC(=O)N([C@@H](C)CO)C[C@@H]2C)cc1`, for which the cytotoxicity call in the assay on HSkMC and in the assay on HepG2 was “active” each time. For the same molecule, the growth inhibition call in the assay on S. aureus RN4220 is “inactive”.
As for `CCC(=O)N(C)C[C@@H]1Oc2ncc(C#C[C@H](C)O)cc2C(=O)N([C@@H](C)CO)C[C@H]1C`, the cytotoxicity call in the assay with HSkMC and in the assay on HepG2 was “inactive” each time. Besides, in the assay with S. aureus RN4220, the growth inhibition call was “inactive”.
Take `CO[C@H]1CN(C)C(=O)c2ccc(NC(=O)Nc3ccc(Cl)cc3)cc2OC[C@@H](C)N(C(=O)Nc2c(C)noc2C)C[C@H]1C`: the cytotoxicity call with HSkMC and in the assay with HepG2 was “inactive” in each case. For the same molecule, the growth inhibition call in the assay on S. aureus RN4220 is “inactive”.
As to `COc1ccc2c(c(Br)c(C(=O)O)n2CCCOc2cccc3ccccc23)c1-c1ccccc1C`, the cytotoxicity call in the assay with HSkMC and in the assay on HepG2 was “inactive” each time. For the same molecule, the growth inhibition call in the assay on S. aureus RN4220 was “active”.
Take `CCCCC[C@H](O)/C=C/[C@H]1[C@H](O)CC(=O)[C@@H]1C/C=C\CCCC(=O)O`: the cytotoxicity call in the assay with HSkMC and in the assay with HepG2 was “inactive” in each case. The growth inhibition call with S. aureus RN4220 is “inactive”.
On to `Cc1cccc(S(=O)(=O)N2C[C@@H](O)COC[C@@H]3O[C@H](CC(=O)NCc4ccncn4)CC[C@H]32)c1`, for which the cytotoxicity call in the assay with HSkMC and in the assay on HepG2 was “inactive” each time. Moreover, the growth inhibition call in the assay on S. aureus RN4220 was “inactive”.
For `CN(C)CCCNC(=O)[C@@H]1c2ccccc2C(=O)N(Cc2cc(C(F)(F)F)cc(C(F)(F)F)c2)[C@H]1c1ccc(CO)cc1`, the cytotoxicity call in the assay on HSkMC and with HepG2 was “inactive” each time. The growth inhibition call with S. aureus RN4220 was “inactive”.
Consider `C[C@@H]1CN([C@@H](C)CO)C(=O)Cc2cc(NC(=O)Nc3ccc(F)cc3)ccc2O[C@@H]1CN(C)CC1CCCCC1`, for which the cytotoxicity call in the assay with HSkMC is “inactive”. Besides, in the assay with HepG2, the cytotoxicity call is “active”. Moreover, the growth inhibition call in the assay on S. aureus RN4220 was “inactive”.
Take `C[C@H]1CN([C@@H](C)CO)C(=O)c2cc(NC(=O)Cc3cn(C)c4ccccc34)ccc2O[C@H]1CN(C)C(=O)Nc1ccc(C(F)(F)F)cc1`: the cytotoxicity call in the assay with HSkMC and with HepG2 was “inactive” throughout. Further, the growth inhibition call in the assay with S. aureus RN4220 is “inactive”.
For the molecule `Cc1noc(C)c1S(=O)(=O)Nc1ccc2c(c1)C(=O)N([C@@H](C)CO)C[C@H](C)[C@@H](CN(C)S(C)(=O)=O)O2`, the cytotoxicity call with HSkMC and with HepG2 was “inactive” throughout. Moreover, in the assay on S. aureus RN4220, the growth inhibition call is “inactive”.
As for `CNC[C@@H]1OCCCC[C@@H](C)Oc2ccc(NC(=O)Nc3cccc4ccccc34)cc2C(=O)N([C@@H](C)CO)C[C@H]1C`, the cytotoxicity call in the assay on HSkMC and with HepG2 was “inactive” throughout. Moreover, in the assay on S. aureus RN4220, the growth inhibition call was “inactive”.
Regarding `COc1ccc(S(=O)(=O)N[C@H]2C=C[C@@H](CC(=O)N3CCN(c4ccccc4)CC3)O[C@@H]2CO)cc1`, the cytotoxicity call in the assay on HSkMC and in the assay on HepG2 was “inactive” each time. For the same molecule, the growth inhibition call in the assay on S. aureus RN4220 was “inactive”.
For `C[C@@H]1CCCCO[C@H](CN(C)S(=O)(=O)c2ccc(F)cc2)[C@@H](C)CN([C@@H](C)CO)C(=O)c2cc(NC(=O)Cc3ccccc3)ccc2O1`, the cytotoxicity call with HSkMC is “inactive”. Moreover, the cytotoxicity call in the assay on HepG2 is “active”. Further, in the assay on S. aureus RN4220, the growth inhibition call was “inactive”.
With `O=C(C[C@H]1CC[C@@H]2[C@H](COC[C@@H](O)CN2S(=O)(=O)c2ccc(Cl)cc2)O1)N[C@@H]1CCN(Cc2ccccc2)C1`, the cytotoxicity call in the assay with HSkMC and in the assay with HepG2 was “inactive” each time. Moreover, the growth inhibition call with S. aureus RN4220 was “inactive”.
Take `CCS(=O)(=O)Nc1ccc2c(c1)C(=O)N(C)[C@@H]1CC[C@H](CC(=O)NCc3ccccc3F)O[C@@H]1CO2`: the cytotoxicity call in the assay on HSkMC and in the assay on HepG2 was “inactive” each time. The growth inhibition call in the assay on S. aureus RN4220 is “inactive”.
Turning to `Nc1ncnc2c1ncn2[C@H]1O[C@@H](CO)[C@H](O)[C@@H]1O`, the cytotoxicity call in the assay with HSkMC and in the assay with HepG2 was “inactive” throughout. The growth inhibition call in the assay with S. aureus RN4220 was “inactive”.
Turning to `C[C@@H]1CN([C@H](C)CO)C(=O)Cc2cc(NC(=O)CCCCCC(=O)Nc3ccccc3N)ccc2O[C@H]1CN(C)Cc1ccc(Oc2ccccc2)cc1`, the cytotoxicity call in the assay with HSkMC and in the assay with HepG2 was “inactive” throughout. The growth inhibition call in the assay with S. aureus RN4220 is “inactive”.
As to `COc1ccc(NC(=O)N(C)C[C@H]2OCCCC[C@H](C)Oc3ccc(NS(=O)(=O)c4ccc(F)cc4)cc3C(=O)N([C@@H](C)CO)C[C@@H]2C)cc1`, the cytotoxicity call in the assay on HSkMC and with HepG2 was “inactive” each time. Further, the growth inhibition call in the assay with S. aureus RN4220 was “inactive”.
With `C[C@@H]1CN([C@H](C)CO)C(=O)c2cc(NC(=O)CCN3CCOCC3)ccc2O[C@H]1CN(C)S(=O)(=O)c1ccccc1`, the cytotoxicity call in the assay with HSkMC and in the assay on HepG2 was “inactive” each time. In addition, in the assay on S. aureus RN4220, the growth inhibition call was “inactive”.
Turning to `COCC(=O)N(C)C[C@@H]1Oc2cc(C#CC(C)(C)O)ccc2S(=O)(=O)N([C@H](C)CO)C[C@H]1C`, the cytotoxicity call in the assay on HSkMC and in the assay with HepG2 was “inactive” in each case. The growth inhibition call with S. aureus RN4220 is “inactive”.
Consider `C[C@@H]1CCCCO[C@@H](CN(C)S(=O)(=O)c2ccc(Cl)cc2)[C@@H](C)CN([C@H](C)CO)C(=O)c2cc(NC(=O)Nc3ccc4c(c3)OCO4)ccc2O1`, for which the cytotoxicity call in the assay with HSkMC and with HepG2 was “inactive” in each case. In addition, the growth inhibition call in the assay on S. aureus RN4220 is “inactive”.
In the case of `C[C@@H]1CN([C@H](C)CO)C(=O)Cc2cc(NS(=O)(=O)c3ccc(Cl)cc3)ccc2O[C@@H]1CN(C)Cc1ccc(Cl)c(Cl)c1`, the cytotoxicity call in the assay with HSkMC and in the assay with HepG2 was “active” throughout. Further, the growth inhibition call with S. aureus RN4220 is “inactive”.
In the case of `CC(C)NC(=O)Nc1ccc2c(c1)C(=O)N([C@@H](C)CO)C[C@@H](C)[C@@H](CN(C)C(=O)Nc1ccccc1)OCCCC[C@@H](C)O2`, the cytotoxicity call in the assay with HSkMC and in the assay with HepG2 was “inactive” each time. Also, the growth inhibition call in the assay with S. aureus RN4220 was “inactive”.
`COc1ccc(S(=O)(=O)Nc2ccc3c(c2)C(=O)N([C@@H](C)CO)C[C@H](C)[C@H](CN(C)S(=O)(=O)c2cn(C)cn2)O3)cc1`: the cytotoxicity call in the assay on HSkMC (human skeletal muscle cells) and in the assay on HepG2 was “inactive” in each case. The growth inhibition call in the assay on S. aureus RN4220 was “inactive”.
Turning to `CCS(=O)(=O)N1C[C@]2(CN(C2)C(=O)Nc2c(noc2C)C)c2c([nH]c3cc(ccc23)OC)[C@@H]1CO`, the cytotoxicity call with HSkMC and in the assay with HepG2 was “inactive” each time. The growth inhibition call in the assay with S. aureus RN4220 was “inactive”.
On to `CNCCCC12CCC(c3ccccc31)c1ccccc12.Cl`, for which the cytotoxicity call with HSkMC is “inactive”. The cytotoxicity call in the assay on HepG2 is “active”. The growth inhibition call in the assay on S. aureus RN4220 is “inactive”.
